Assay results published in the RNAGym collection of RNA variant scans (doi:10.7554/elife.90254).
Read counts are not given, so values of variants with three or more changes are uncertain.

B1: OR4K15 (parent)
chain: GUUAACGGUCAUAGGCCAUGGAAACUAGGAGCACCAUUUCGCUGCCAGUGAAGAAAUGAACAAAGAAAAUCUGGGCCAGGCAGGCAUCAAAAGAAAUAGUCUUGCGCUCAACCAGAAAGUCUGUAAUCAUUUUAAGGGUA

Variants of: B1
Assay: self-cleavage, relative activity (ratio to wild type); higher = more cleavage; in vitro, sequencing; the parent is a self-cleaving ribozyme

| Variant | self-cleavage |
| --- | --- |
| A33G G53A A90G U103C A111U A118G U130C | 0 |
| G1U A111G G115A | 0 |
| A18U A60G A90G | 0.75 |
| G7U A24G A110G | 0.42 |
| A56G A68U A69G A82G | 0.21 |
| A52G A54G A67U C85G | 0.73 |
| A62U A94G A110G | 0.16 |
| A33G A66G A68C U87C A118G | 0.71 |
| U2C A78C A129U | 0.18 |
| A30G A54U U120A | 1.23 |
| U37C A82G C113U | 0.05 |
| U43C A95G A117G | 2.15 |
| A5G U38C A60G A78U A82U U133C | 0.21 |
| A82G G104U A116U | 0 |
| A27G A51G A118G | 1.27 |
| A22G G44A U57C | 1.35 |
| G7U A60G A95G A135G | 0.48 |
| U87C A89U A118U | 0.27 |
| A4G A134G A140G | 1.06 |
| A36C A56G U102C A111G | 0.01 |
| U39A A52G A68G | 0.77 |

| Variant | self-cleavage |
| --- | --- |
| A86C A114U U131C | 0.01 |
| U2C A52G U97C U122C | 0.38 |
| C112G U120C A135U | 0.02 |
| U2A A18U U87A U97C U139C | 0.79 |
| A56G U97C A98G | 1.51 |
| U37C A54G A89U U102A A111G A116G | 0.01 |
| A30G G58U A64U G74U | 0.11 |
| U9C U39A A89G A94G | 2.16 |
| C17U A94G A118G U122C A129C | 0.47 |
| G7U A52U A96G | 1.31 |
| U2C A60G G123U U130C U131C | 1.19 |
| A66G U70C U131C | 0.22 |
| A60G A68G U97A C112U | 0.04 |
| A78G U102C A140G | 0.26 |
| A36C G48C A51G U131C | 1 |
| A11G A18U U108G U127A | 0.03 |
| A51G A67G A69C U122C U124C | 0.97 |
| A18G U38C U49C A66G G83A A118G A129G | 0.89 |
| U38C U49C A82G | 0.27 |
| U37C A60G A69G | 0.7 |
| A68G A78U A95G | 1.33 |

| Variant | self-cleavage |
| --- | --- |
| U12A A59G A68G A69U A96G | 1.05 |
| A13U A47U G75A A94G U97C | 0.09 |
| U38C A51G A60G | 1.59 |
| A23G A59U U70C | 0.42 |
| A22G A98G A135G | 0.26 |
| U39A A47U A59G G99A A110G A118G | 0.01 |
| A4G A82U C85U | 0.33 |
| U2C U37C A54G U130C | 0.73 |
| U9C A69G G138A | 2.22 |
| U49C G50A A111U | 0.03 |
| U2C A13U A33G A51G U103C A134G | 0.65 |
| G15A A68G A111G | 0.01 |
| A60G A63G A68G | 2.06 |
| A11G C16G A23G A56G | 0.81 |
| A18G G53A A67G U122C U132C | 0.32 |
| A11G A22G U37C A60G A82G G119A U132C | 0.61 |
| U87C U124C A126G | 0.12 |
| U3C G48C U102C U103C A117G A129G | 0.08 |
| A110U U122C U131A | 0.49 |
| U43A A78U A125G | 0.03 |
| A18G A89U A92G U127C | 0.52 |

| Variant | self-cleavage |
| --- | --- |
| U2A A36G A60G A91G | 1.06 |
| A22G A36C A55G A82U | 0.36 |
| A23G U38C U70C U100C U122C | 1.27 |
| A94G U108C A118G U132C | 0 |
| A36U A51G A55G | 1.1 |
| A30U U37C C77U A94G U103C | 1.78 |
| A89G C109U A118U | 0.1 |
| A47U A62G A92G U108A | 0.01 |
| U39C A92G U122C | 0.93 |
| A11U A92G A114U A140G | 0.02 |
| U72G U124A A129G | 0.25 |
| A24U A64G A94G A98G | 0.71 |
| G7U A22G A23G A126G | 0.78 |
| A23G A89U A111G | 0.22 |
| A78G A90U U133C | 0.25 |
| A22G A64G A117G U132C A140G | 0.71 |
| A24C U87C A126G | 0.87 |
| U38C U49C A82U | 0.27 |
| C25A U39A A55G U108C U122C | 0.02 |
| U9C A13U A33U U102A A114U U131C | 0 |
| A13G A54G A59G A66G U87A U124C A129G | 0.45 |
